Test results as given in US20260055188A1 (SHENGHE CHINA BIOPHARMACEUTICAL, published 2026).

Legend:
[1] = biological target: T1, Human-TNFR2-His (manufacturer: SINO, CAT: 10417-H08H) (human, UniProt P20333 23-257); experiment: BLI, antibody on AHC sensor, 100 nM human-TNFR2-His in solution
T1 construct: Bought protein; also called human TNFR2 protein; TNFR2 protein; not shown: His tag
T1 sequence (looked up): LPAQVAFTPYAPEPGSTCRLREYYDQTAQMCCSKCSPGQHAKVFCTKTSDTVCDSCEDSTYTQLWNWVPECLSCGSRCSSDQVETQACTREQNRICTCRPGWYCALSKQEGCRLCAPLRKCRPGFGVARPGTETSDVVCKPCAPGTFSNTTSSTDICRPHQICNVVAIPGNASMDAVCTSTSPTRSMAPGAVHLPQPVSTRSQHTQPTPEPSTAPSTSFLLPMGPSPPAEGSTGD
Protocol: The AHC sensor was soaked in 0.02% PBST (0.02% Tween 20, pH 7.4, 1×PBS) as a buffer for 600 s to remove the sucrose covering the sensor surface. The AHC sensor was equilibrated with 0.02% PBST (0.02% Tween 20, pH 7.4, 1×PBS) as a buffer for 60 s, the antibody in the sample plate was solidified for 300 s, and the secondary equilibration buffer was used for 180 s. 100 nM human-TNFR2-His (manufacturer: SINO, CAT: 10417-H08H, LOT: LC12SE2902) protein was bound to the antibody for 300 s and then dissociated for 600 s. After dissociation, 10 mM glycine (pH 2.0) was used as a regeneration buffer for 30 s. The sensor was regenerated with 10 mM glycine (pH 2.0).

[2] = biological target: T2, human CD24 on MCF-7 tumor cells (human, UniProt P25063 27-59); experiment: flow cytometry on MCF-7 cells, 150 nM antibody, anti-human IgG Fc detection
T2 construct: whole, on cells; also called CD24 protein; MCF-7 tumor cells with high expression of human CD24
T2 chain (looked up): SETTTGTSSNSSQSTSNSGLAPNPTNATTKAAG
Protocol: 100 μL of dilution was added to the blank control group, and 100 μL of fluorescent secondary antibody dilution was added to the rest of the sample groups respectively. After incubation for 0.5 h at room temperature and 4° C. protected from light, PBS was added to wash and centrifuged (3000 rpm, 3 min) twice. After discarding the supernatant, 80 μL of the dilution was added and resuspended.

[3] = biological target: T1, Human-TNFR2-His (manufacturer: SINO, …); experiment: flow cytometry, bridging: MCF-7 cells (human CD24) + 150 nM antibody + human TNFR2-His, anti-His FITC detection
Protocol: Pre-cooled dilution was added and washed once, centrifuged (3000 rpm, 3 min), and the supernatant was discarded, and the cells were harvested. Fluorescent secondary antibody Anti-6X-his tag antibody (FITC) (manufacturer: abcam, Cat. No.: ab1206, Lot No.: GR3420599-3) was taken and diluted at the used concentration of 1:500. 100 μL of dilution was added to the blank control group, and 100 μL of fluorescent secondary antibody dilution was added to the rest of the sample groups respectively. After incubation for 0.5 h at room temperature and 4° C. protected from light, PBS was added to wash and centrifuged (3000 rpm, 3 min) twice. After discarding the supernatant, 80 μL of the dilution was added and resuspended.

Kd [1]: 2.54 nM | koff [1]: 0.000383 s⁻¹ | kon [1]: 151000 M⁻¹ s⁻¹ | E1 Mean PE-A [2]: 4.02e+06 | E1 Mean FITC-A [3]: 6.67e+06
B1: TD-G (bispecific antibody, human IgG1, kappa)
light: DIVMTQSPSSLAVSLGERATINCKSSQSLLYSNDQKNYLAWYQQKPGQSPKLLIYWASTRESGVPDRFSGSGSGTDFTLTISSLQAEDVAVYYCQQYFIYPLTFGGGTKLELKRTVAAPSVFIFPPSDEQLKSGTASVVCLLNNFYPREAKVQWKVDNALQSGNSQESVTEQDSKDSTYSLSSTLTLSKADYEKHKVYACEVTHQGLSSPVTKSFNRGECGGGGSGGGGSEVQLVESGGGLVQPGGSLRLSCAASGSRLDYYAVAWFRQAPGKEREEVSCITYSGGSTNYAESVKGRFTISRDNSKNTLYLQMNSLRAEDTAVYYCTTEPYGSSCPLSGYDTWGQGTLVTVSS
heavy: EVQLQESGPGLVKPSQTLSLTCTVSGYSITSGYTWHWIRQFPGNKLEWIGHIQYTGNTKYNPSLESRITISRDTSKNQFSLKLSSVTAADTATYYCARGSTNSNDYWGQGTLVTVSS[not shown - human IgG1 constant region]
notes: also called antibody TD-G

E1 Mean PE-A [2]: 3.72e+06 | E1 Mean FITC-A [3]: 2.61e+06
B2: TD-F (bispecific antibody, human IgG1, kappa)
light: EVQLVQSGAEVKKPGATVKISCKVSGYSITDYLLHWVQQAPGKCLEWMGWIDPEDAKTKYGQKFQSRVTITADTSTDTAYMELSSLRSEDTAVYYCAANSGTGTMDAWGQGTLVTVSSGGGGSGGGGSGGGGSDIVMTQSPATLSVSPGERATLSCKASQNVGSNVDWYQQKPGQSPRVLIYKASIRYTGIPARFSGSGSGTEFTLTISILQSEDFAVYFCMQSKSYPITFGCGTKLEIKGGGGSGGGGSGGGGSDIVMTQSPSSLAVSLGERATINCKSSQSLLYSNDQKNYLAWYQQKPGQSPKLLIYWASTRESGVPDRFSGSGSGTDFTLTISSLQAEDVAVYYCQQYFIYPLTFGGGTKLELKRTVAAPSVFIFPPSDEQLKSGTASVVCLLNNFYPREAKVQWKVDNALQSGNSQESVTEQDSKDSTYSLSSTLTLSKADYEKHKVYACEVTHQGLSSPVTKSFNRGEC
heavy: B1 heavy
notes: also called antibody TD-F

Kd [1]: 1.28 nM | koff [1]: 0.000634 s⁻¹ | kon [1]: 494000 M⁻¹ s⁻¹ | E1 Mean PE-A [2]: 4.14e+06 | E1 Mean FITC-A [3]: 3.12e+06
B4: TD-H (bispecific antibody, human IgG1, kappa)
light: EVQLVESGGGLVQPGGSLRLSCAASGSRLDYYAVAWFRQAPGKEREEVSCITYSGGSTNYAESVKGRFTISRDNSKNTLYLQMNSLRAEDTAVYYCTTEPYGSSCPLSGYDTWGQGTLVTVSSGGGGSGGGGSGGGGSDIVMTQSPSSLAVSLGERATINCKSSQSLLYSNDQKNYLAWYQQKPGQSPKLLIYWASTRESGVPDRFSGSGSGTDFTLTISSLQAEDVAVYYCQQYFIYPLTFGGGTKLELKRTVAAPSVFIFPPSDEQLKSGTASVVCLLNNFYPREAKVQWKVDNALQSGNSQESVTEQDSKDSTYSLSSTLTLSKADYEKHKVYACEVTHQGLSSPVTKSFNRGEC
heavy: B1 heavy
notes: also called antibody TD-H

Second part, the binder before the results:

B3: TD-E (bispecific antibody, human IgG1, kappa)
light: DIVMTQSPSSLAVSLGERATINCKSSQSLLYSNDQKNYLAWYQQKPGQSPKLLIYWASTRESGVPDRFSGSGSGTDFTLTISSLQAEDVAVYYCQQYFIYPLTFGGGTKLELKRTVAAPSVFIFPPSDEQLKSGTASVVCLLNNFYPREAKVQWKVDNALQSGNSQESVTEQDSKDSTYSLSSTLTLSKADYEKHKVYACEVTHQGLSSPVTKSFNRGECGGGGSGGGGSEVQLVQSGAEVKKPGATVKISCKVSGYSITDYLLHWVQQAPGKCLEWMGWIDPEDAKTKYGQKFQSRVTITADTSTDTAYMELSSLRSEDTAVYYCAANSGTGTMDAWGQGTLVTVSSGGGGSGGGGSGGGGSDIVMTQSPATLSVSPGERATLSCKASQNVGSNVDWYQQKPGQSPRVLIYKASIRYTGIPARFSGSGSGTEFTLTISILQSEDFAVYFCMQSKSYPITFGCGTKLEIK
heavy: B1 heavy
notes: also called antibody TD-E
E1 Mean PE-A [2]: 3.3e+06 | E1 Mean FITC-A [3]: 5.59e+06

B5: TD-C (bispecific antibody, human IgG1, kappa)
light: DIVMTQSPSSLAVSLGERATINCKSSQSLLYSNDQKNYLAWYQQKPGQSPKLLIYWASTRESGVPDRFSGSGSGTDFTLTISSLQAEDVAVYYCQQYFIYPLTFGGGTKLELKRTVAAPSVFIFPPSDEQLKSGTASVVCLLNNFYPREAKVQWKVDNALQSGNSQESVTEQDSKDSTYSLSSTLTLSKADYEKHKVYACEVTHQGLSSPVTKSFNRGEC
heavy: EVQLQESGPGLVKPSQTLSLTCTVSGYSITSGYTWHWIRQFPGNKLEWIGHIQYTGNTKYNPSLESRITISRDTSKNQFSLKLSSVTAADTATYYCARGSTNSNDYWGQGTLVTVSS[not shown - human IgG1 constant region]GGGGSGGGGSGGGGSEVQLVESGGGLVQPGGSLRLSCAASGSRLDYYAVAWFRQAPGKEREEVSCITYSGGSTNYAESVKGRFTISRDNSKNTLYLQMNSLRAEDTAVYYCTTEPYGSSCPLSGYDTWGQGTLVTVSS
notes: also called antibody TD-C
Kd [1]: 2.38 nM | koff [1]: 0.000652 s⁻¹ | kon [1]: 275000 M⁻¹ s⁻¹ | E1 Mean PE-A [2]: 3.15e+06 | E1 Mean FITC-A [3]: 7.2e+06

B6: TD-B (bispecific antibody, human IgG1, kappa)
light: B5 light
heavy: EVQLVQSGAEVKKPGATVKISCKVSGYSITDYLLHWVQQAPGKCLEWMGWIDPEDAKTKYGQKFQSRVTITADTSTDTAYMELSSLRSEDTAVYYCAANSGTGTMDAWGQGTLVTVSSGGGGSGGGGSGGGGSDIVMTQSPATLSVSPGERATLSCKASQNVGSNVDWYQQKPGQSPRVLIYKASIRYTGIPARFSGSGSGTEFTLTISILQSEDFAVYFCMQSKSYPITFGCGTKLEIKGGGGSGGGGSGGGGSEVQLQESGPGLVKPSQTLSLTCTVSGYSITSGYTWHWIRQFPGNKLEWIGHIQYTGNTKYNPSLESRITISRDTSKNQFSLKLSSVTAADTATYYCARGSTNSNDYWGQGTLVTVSS[not shown - human IgG1 constant region]
notes: also called antibody TD-B
E1 Mean PE-A [2]: 4.02e+06 | E1 Mean FITC-A [3]: 5.23e+06

One block for each binder: values may come before it.
